Assay results reported in PubChem BioAssay AID588342 (National Center for Advancing Translational Sciences (NCATS), 2011).
Among all 360,000 compounds or so, about 25,000 (6.9%) were called active. Inconclusive results, whose numbers are uncertain, are shown with a selection of clear calls. The call rests on the fitted dose curve; in most records, active means well fitted inhibition curve with a large enough effect; inconclusive means small, poorly fitted or top-dose-only effect; inactive means flat fitted curve, though single readings scatter. Where the call is inconclusive, the potency comes from a doubtful curve fit.

What follows are compounds tested against Luciferin 4-monooxygenase (Photinus pyralis) (UniProt P08659) (assay: qHTS profiling assay for firefly luciferase inhibitor/activator using purifed enzyme and Km concentrations of substrates (counterscreen for miR-21 project)). Settings: purified FLuc, luminescence inhibition; series mostly up to 57.5 µM.
UniProt P08659, sequence (P08659 whole entry, looked up): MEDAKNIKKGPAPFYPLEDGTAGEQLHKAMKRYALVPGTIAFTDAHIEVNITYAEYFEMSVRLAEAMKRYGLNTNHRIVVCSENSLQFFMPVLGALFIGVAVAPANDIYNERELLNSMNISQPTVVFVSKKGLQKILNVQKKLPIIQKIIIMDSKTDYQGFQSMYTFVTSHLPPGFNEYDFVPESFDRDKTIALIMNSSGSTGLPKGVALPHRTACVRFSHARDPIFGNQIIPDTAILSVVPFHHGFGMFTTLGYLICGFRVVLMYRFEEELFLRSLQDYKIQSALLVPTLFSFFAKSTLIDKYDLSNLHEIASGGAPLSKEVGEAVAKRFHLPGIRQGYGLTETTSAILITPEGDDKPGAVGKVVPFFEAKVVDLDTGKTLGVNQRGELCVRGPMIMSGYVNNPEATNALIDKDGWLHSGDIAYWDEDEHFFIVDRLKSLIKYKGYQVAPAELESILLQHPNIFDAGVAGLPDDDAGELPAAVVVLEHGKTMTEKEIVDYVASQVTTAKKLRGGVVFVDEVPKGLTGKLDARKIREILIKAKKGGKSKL
Procedure, shortened: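 Purified P. pyralis luciferase (10nM final) with 10uM D-luciferin and 10uM ATP (Km levels) in 50mM Tris acetate pH 7.5, 10mM Mg acetate, 0.01% Tween-20, 0.05% BSA; qHTS 6-point titration, ~60 µM downward; luminescence read.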
Further: nearly all actives have a fitted effect of over 55% in size.
Potency means the concentration at half of the fitted maximal effect; tags describe the fitted curve by direction and shape.

Structure (SMILES)	Potency
COc1ccc2cc3cc(C(=O)N4CC(C)CC(C)C4)oc3nc2c1 (stereo not drawn)	inconclusive: 26.9 µM [inhibitor, single point]
COc1ccc(NC(=O)O/N=C/c2c(C)nn(C(C)(C)C)c2C)cc1	active: 0.379 µM
CCN1CC(CNCc2cn(-c3ccc(OC)cc3)nc2-c2ccccc2Cl)CC1=O (stereo not drawn)	inconclusive: 37.9 µM [inhibitor, partial curve, poor fit]
CCN1C(=O)[C@H]2[C@@H](c3ccc(C)cc3)N3C(=O)N(c4ccc(OC)cc4)C(=O)[C@@]3(CC)[C@H]2C1=O	inactive
O=C(O)CCCCCN1C(=O)C(O)=C(C(=O)/C=C/c2ccccc2)C1c1ccc2c(c1)OCO2 (stereo not drawn)	inconclusive: 37.9 µM [inhibitor, partial curve, poor fit]
Cc1cccc(NC(=S)NNC(=O)c2csc(C)c2)c1	active: 8.49 µM
Cc1cc2nc(N)sc2cc1[N+](=O)[O-]	inconclusive: 26.9 µM [inhibitor, partial curve, poor fit]
CC(C)(C)c1ccc(OC(=O)N2CCOCC2)cc1	active: 15.1 µM
CCCCN(Cc1ccccc1)c1ncnc2nc[nH]c12	inconclusive: 19 µM [inhibitor, partial curve]
CCn1ccc2cc(S(=O)(=O)N3CCC(C(=O)NCc4cccc(Cl)c4)CC3)ccc21	inactive
Cc1nnc(SCC(=O)c2c[nH]c3ccccc23)n1C1CC1	inactive
CCOC(=O)c1cc(NC(=O)/C=C\C(=O)O)ccc1Cl	inconclusive: 26.9 µM [inhibitor, partial curve, poor fit]
NS(=O)(=O)c1ccc(N=Nc2c[nH]c(=O)c(O)c2)cc1	inconclusive: 37.9 µM [inhibitor, partial curve, poor fit]
C/C(=N\NC(=O)c1csc2ccccc12)c1ccc(O)cc1	inconclusive: 21.3 µM [inhibitor, single point]
CCc1ccc(OCCCC(=O)NCc2ccco2)cc1	inconclusive: 37.9 µM [inhibitor, partial curve, poor fit]
COc1cc2c(cc1NC(=O)CSc1ccccn1)oc1ccccc12	inconclusive: 19 µM [inhibitor, partial curve]
Cc1cccc(Oc2coc3cc(OC(=O)c4cccs4)ccc3c2=O)c1	inconclusive: 12 µM [inhibitor, partial curve]
Cc1cccc(N=C2NC(=O)/C(=C/c3cccnc3)S2)c1	inconclusive: 23.9 µM [inhibitor, partial curve, poor fit]
O=C(O)CCNC(=S)Nc1cccc(F)c1	inactive
COc1ccc(/C=N/NC(=O)c2ccc(COc3cccc4cccnc34)cc2)cc1O	active: 13.5 µM
CCOc1ccc(CNc2ccc3c(c2)ncn3C(C)(C)C)cc1	inconclusive: 21.3 µM [inhibitor, partial curve]
CC(=O)C1=C(NC(=O)c2ccc(F)cc2)CC2C1C2(C)C (stereo not drawn)	active: 21.3 µM
COc1cc2[nH]c(-c3cccc(F)c3)cc(=O)c2cc1OC	inconclusive: 21.3 µM [inhibitor, partial curve, poor fit]

Structure (SMILES)	Potency
O=C(O)c1ccc(CSc2nc3ccc(N4C(=O)C5C6C=CC(C6)C5C4=O)cc3s2)cc1 (stereo not drawn)	inconclusive: 30.1 µM [inhibitor, partial curve, poor fit]
O=C(CSc1nnc(NC2CCCCC2)s1)Nc1ccc(N2CCOCC2)cc1	active: 13.5 µM
O=C(NCCN1C(=O)S/C(=C\c2ccc(Cl)cc2Cl)C1=O)C1=COCCO1	inconclusive: 7.57 µM [inhibitor, partial curve]
Cc1cc(C(=O)NCc2ccccc2Cl)c2ccccc2n1	inconclusive: 23.9 µM [inhibitor, single point]
COC(=O)C(NC(C)=O)(Nc1ccc(C)cn1)C(F)(F)F (stereo not drawn)	inactive
Cc1oc(-c2cccc(Cl)c2)nc1CN1CCCC(C(=O)NCCc2ccc(Cl)cc2)C1 (stereo not drawn)	inconclusive: 19 µM [inhibitor, partial curve, poor fit]
Clc1ccc(Nc2ccc(-n3ccnc3)nn2)cc1Cl	active: 26.9 µM
COc1ccccc1CNC(=O)C1CC(c2ccccc2[N+](=O)[O-])=NO1 (stereo not drawn)	inconclusive: 26.9 µM [inhibitor, single point]
COc1ccc(CSc2nnc(C)s2)cc1F	inconclusive: 30.1 µM [inhibitor, single point]
COc1ccc(-n2c(C)cc(C(=O)COC(=O)Cc3n[nH]c(=O)c4ccccc34)c2C)cc1	inconclusive: 19 µM [inhibitor, partial curve, poor fit]
Cc1cccc2nc(Cn3c(=O)n(CCCC(=O)NCc4ccco4)c(=O)c4ccccc43)cc(=O)n12	inconclusive: 15.1 µM [inhibitor, partial curve, poor fit]
O=C(Nc1nnc(C2CCCCC2)s1)c1ccco1	inconclusive: 10.7 µM [inhibitor, partial curve]
Cc1ccnc(NC(=O)CS(=O)(=O)c2ccccc2)c1	inconclusive: 23.9 µM [inhibitor, single point]
Cc1cccc(NC(=O)c2ccc3c(O)c(S(=O)(=O)c4ccccc4)c(=O)[nH]c3c2)c1C	inconclusive: 13.5 µM [inhibitor, partial curve, poor fit]
O=C(CSc1nnnn1C1CCCC1)N1CCCCC1	active: 19 µM
CN(CC(=O)Nc1ccc(F)cc1)C(=O)COC(=O)C1CCN(c2ccc(C(F)(F)F)cn2)CC1	inactive
CC1(C)CC(NC(=O)c2cccc(Cl)c2)CC(C)(C)N1	inactive
CCC(=O)NC(=S)Nc1ccc(-c2nc3ccc(C)cc3s2)cc1	active: 16.9 µM
CCc1ccc(OCCSc2nc3ccccc3n2CCC(=O)O)cc1	inconclusive: 26.9 µM [inhibitor, partial curve]
COc1cc([N+](=O)[O-])cc(/C=N/NC(=O)CC#N)c1O	inconclusive: 30.1 µM [inhibitor, partial curve, poor fit]
Cc1ccc(C(=O)N2CCc3cc(CNC(=O)c4ccc(Br)cc4)ccc32)cc1	inconclusive: 16.9 µM [inhibitor, partial curve, poor fit]
Cn1cc(Cl)c(C(=O)Nc2nc3ccccc3s2)n1	active: 0.953 µM
Cc1ccc(C(=O)Nc2ccccc2)cc1S(=O)(=O)Nc1ccc(Br)cc1	inconclusive: 13.5 µM [inhibitor, partial curve]

Structure (SMILES)	Potency
Cc1ccc(/C=C2\CCOC2=O)cc1	inconclusive: 26.9 µM [inhibitor, partial curve, poor fit]
CSc1cccc(NC(=O)C2CCN(S(=O)(=O)c3ccc4c(c3)CCCN4C(=O)C3CCC3)CC2)c1	inactive
COc1ccc(N(CC(C)C)S(=O)(=O)c2nnc(NC(=O)c3cccs3)s2)cc1	inconclusive: 37.9 µM [inhibitor, single point]
Nc1nnc(SCC(=O)Nc2ccc(N3CCOCC3)cc2)s1	inconclusive: 26.9 µM [inhibitor, partial curve, poor fit]
C=CCNC(=O)c1onc(CSc2cccc(Cl)c2)c1C(=O)O	inconclusive: 30.1 µM [inhibitor, partial curve, poor fit]
COc1cc(NC(=O)c2cccs2)c(C(=O)OCC(=O)c2cc(C)n(-c3ccccc3)c2C)cc1OC	active: 5.36 µM
Cc1ccc(C2CCN(C(=O)Nc3ccc(Cl)cc3)C2)cc1 (stereo not drawn)	inconclusive: 2.69 µM [inhibitor, full curve]
Cc1ccccc1Nc1nc(-c2sc(NC(=O)c3ccccc3)nc2C)cs1	active: 8.49 µM
COc1cccc(OCc2cc(/C=N/n3cncn3)ccc2OC)c1	inconclusive: 19 µM [inhibitor, single point]
C=CCn1c(=O)/c(=C/c2cc(OC)c(OC)c(OC)c2)s/c1=C(/C#N)c1nc2ccccc2n1C	inactive
Cc1cc(=O)[nH]c2nnc(SCc3c(F)cccc3Cl)n12	inactive
c1ccc(CSc2ncnc3ccccc23)cc1	inconclusive: 26.9 µM [inhibitor, partial curve, poor fit]
CC(=O)c1c(C)[nH]c(-c2ccccc2)c1C	inconclusive: 37.9 µM [inhibitor, partial curve, poor fit]
S=C(NCC1CCCO1)N1CCN(c2nc(-c3ccc(Cl)cc3)cs2)CC1 (stereo not drawn)	inconclusive: 30.1 µM [inhibitor, partial curve, poor fit]
c1ccc(N2CCN(c3nc(NCc4ccco4)c4ccccc4n3)CC2)cc1	inconclusive: 23.9 µM [inhibitor, single point]
OC(c1ccccc1)c1nc2ccccc2s1 (stereo not drawn)	inconclusive: 15.1 µM [inhibitor, partial curve, poor fit]
Cc1ccc(NC(=O)c2oc3ccccc3c2NC(=O)c2ccc(F)c(F)c2)cc1	inactive
CCCc1cc(=O)[nH]c(SC(C)C(=O)Nc2ccc3c(c2)OCCO3)n1 (stereo not drawn)	inactive
Cc1cc(Cl)ccc1OCCCC(=O)OCC(=O)c1c(N)n(C)c(=O)n(C)c1=O	inconclusive: 37.9 µM [inhibitor, partial curve, poor fit]
O=C(Nc1nc2ccc(Cl)cc2s1)c1cc(=O)c2ccccc2o1	inconclusive: 8.49 µM [inhibitor, full curve]
COc1ccc(Br)cc1C(=O)Nc1cccc(NC(=O)c2ccco2)c1	active: 23.9 µM
CCOc1ccc(C(=O)Cn2cnc3ccccc3c2=O)cc1	inconclusive: 26.9 µM [inhibitor, single point]
